# Among all 310,000 compounds or so, about 14,000 (4.5%) showed an effect of 50% or more. Effects have a minus sign here. The list shows a part of the results.
# Target: human ether-à-go-go-related gene (hERG) potassium channel (human, UniProt Q12809)
# Experiment: primary screen, population patch clamp on CHO cells stably expressing hERG
# 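Also: peak tail current of the secondary pulse compared with the same well before compound.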
# Sequence of human ether-à-go-go-related gene (hERG) potassium channel (Q12809 whole entry, looked up): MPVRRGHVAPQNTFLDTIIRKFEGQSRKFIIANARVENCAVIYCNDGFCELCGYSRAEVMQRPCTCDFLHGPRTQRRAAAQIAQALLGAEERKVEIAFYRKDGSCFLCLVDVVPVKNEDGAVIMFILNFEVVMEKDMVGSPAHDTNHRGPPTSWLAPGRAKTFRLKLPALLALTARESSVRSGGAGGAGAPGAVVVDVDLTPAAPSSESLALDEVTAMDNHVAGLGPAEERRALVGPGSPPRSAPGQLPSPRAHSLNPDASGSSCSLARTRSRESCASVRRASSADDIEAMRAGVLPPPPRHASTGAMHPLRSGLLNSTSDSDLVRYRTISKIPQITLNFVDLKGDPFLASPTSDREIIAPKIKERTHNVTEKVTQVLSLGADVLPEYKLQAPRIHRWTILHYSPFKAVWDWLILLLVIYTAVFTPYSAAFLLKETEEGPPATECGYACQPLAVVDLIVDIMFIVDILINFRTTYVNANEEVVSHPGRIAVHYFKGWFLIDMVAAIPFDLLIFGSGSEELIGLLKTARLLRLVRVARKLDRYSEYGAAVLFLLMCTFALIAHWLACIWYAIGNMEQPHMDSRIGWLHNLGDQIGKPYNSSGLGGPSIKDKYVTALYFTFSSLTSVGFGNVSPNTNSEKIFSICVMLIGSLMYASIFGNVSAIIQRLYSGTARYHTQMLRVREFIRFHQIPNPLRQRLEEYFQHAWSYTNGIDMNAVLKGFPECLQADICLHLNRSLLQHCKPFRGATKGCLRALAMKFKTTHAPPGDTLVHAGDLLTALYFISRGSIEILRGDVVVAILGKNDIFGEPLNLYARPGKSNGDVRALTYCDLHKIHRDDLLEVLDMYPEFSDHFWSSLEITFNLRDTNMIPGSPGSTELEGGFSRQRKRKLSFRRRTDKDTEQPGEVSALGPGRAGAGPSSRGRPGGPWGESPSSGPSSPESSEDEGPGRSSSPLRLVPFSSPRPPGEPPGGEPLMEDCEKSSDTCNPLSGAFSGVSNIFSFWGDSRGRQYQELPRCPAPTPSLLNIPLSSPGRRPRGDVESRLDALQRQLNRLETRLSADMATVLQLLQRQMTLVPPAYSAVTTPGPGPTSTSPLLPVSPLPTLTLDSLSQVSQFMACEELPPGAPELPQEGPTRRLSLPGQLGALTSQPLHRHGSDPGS
row,Compound,"hERG current change (%, negative = inhibition) at 10uM"
1,O=C1COc2ccc(C(=O)COC(=O)c3sc4ccccc4c3Cl)cc2N1,14%
2,CCOc1ccccc1-c1nc(-c2ccncc2)no1,-15.8%
3,Cn1c(CNc2ccccc2)cc(=O)n(C)c1=O,6.36%
4,COC1CCCCC1Nc1cc(C)ccc1C (stereo not drawn),10.4%
5,Nc1nnc(SCC(=O)Nc2cccc3ccccc23)s1,14.1%
6,COc1ccc(CSC2=NCCN2)cc1Br,1.43%
7,CC(C)(C)CN1C(=O)C(=O)NC[C@@H]1CCCCN,17.4%
8,CCN(CC)CC.CCOc1ccccc1-n1c(=S)sc2c(=O)n(-c3ccc(C)cc3)c(=S)[nH]c21,17.3%
9,COC(=O)c1nc2nc(C)cc(C(F)(F)F)n2n1,8.95%
10,O=C(NCc1cccnc1)NC1CC(=O)N(c2ccc3c(c2)OCCO3)C1 (stereo not drawn),-0.536%
11,COc1ccc(CCNS(=O)(=O)c2cc3c(cc2C)NC(=O)CO3)cc1OC,6.94%
12,COc1ccccc1N1CCN(C(=O)c2cc(-c3ccccc3)on2)CC1,8.22%
13,CCOC(=O)c1ccc(N)cc1,14.4%
14,COc1cccc(C(=O)NCC2(c3ccccc3)CCCC2)c1,-9.86%
15,Cc1ccc(-c2nn3c(C)nnc3c3ccccc23)cc1S(=O)(=O)NCCN1CCOCC1,-30.5%
16,CC(=O)c1ccc(NC(=O)CSc2nc(C)cc(C)c2C(N)=O)cc1,14.9%
17,O=C(CC12CC3CC(C1)CC(CC(=O)N1CCCC1)(C3)C2)N1CCCC1,-1.42%
18,CC(C)C[C@H](NC(=O)c1nc[nH]c1C(=O)NCc1ccc(CNC(=O)OC(C)(C)C)cc1)C(=O)OC(C)(C)C,2.06%
19,COc1cc(C(=O)OCCN2CCOCC2)ccc1O,6.63%

row,Compound,"hERG current change (%, negative = inhibition) at 10uM"
1,COCC(=O)OCC(=O)Nc1cc(C(C)(C)C)nn1-c1ccccc1,19.8%
2,CC(NC(=O)Cc1ccsc1)c1ccc(F)cc1 (stereo not drawn),10.1%
3,COc1ccccc1NC(=O)CN1CCN(c2ccc(Cl)cc2)CC1,-3.82%
4,COCCOC(=O)c1c(NC(=O)CNCc2ccco2)sc(C(N)=O)c1C,-11%
5,Cc1cc(=O)n2c(nc3ccccc32)[nH]1,-5.21%
6,O=C(CCn1cccc(C(F)(F)F)c1=O)Nc1cccc(C(F)(F)F)c1,-5.91%
7,Cc1nc(CNC(=O)CC2C(=O)NCCN2Cc2cccc(Oc3ccccc3)c2)cs1 (stereo not drawn),10.4%
8,c1ccc(-c2noc(-c3cccs3)n2)nc1,-22.7%
9,N/C(Cc1ccc(Cl)c(Cl)c1)=N\OC(=O)c1cccs1,8.25%
10,COC(=O)Nc1ccc(S(=O)(=O)N(CCO)CC(F)(F)C(F)F)cc1,18.3%
11,O=C(/C=C/c1ccccc1)N/C(=C/c1ccccc1)C(=O)Nc1ccc(C(=O)O)cc1,19.6%
12,COc1ccc(NC(=O)CSc2nnnn2C2CC3C=CC2C3)cc1 (stereo not drawn),-10.5%
13,CC(C)CN1CCN(Cc2c[nH]c3ccccc23)CC1CCO (stereo not drawn),4.11%
14,COc1cc([N+](=O)[O-])ccc1NC(=O)Nc1cccnc1,12.3%
15,NC(=O)NC(=O)COC(=O)c1ccccc1Oc1ccccc1,-6.45%
16,COc1ccc(C(=O)OCC(=O)N(C)C2CCS(=O)(=O)C2)cc1S(=O)(=O)N1CCCc2ccccc21 (stereo not drawn),-8.39%
17,CCn1nc(C)c(CN2CCN(Cc3cccc(OC)c3)C(CCO)C2)c1C (stereo not drawn),-6.7%
18,Cc1ccccc1NS(=O)(=O)c1nnc(NC(=O)c2ccc(Br)cc2)s1,17.8%
19,CC1CCN(CCOCCOc2ccccc2-c2ccccc2)CC1,-57.2%

row,Compound,"hERG current change (%, negative = inhibition) at 10uM"
1,COC(=O)C(Cc1csc2ccc(Cl)cc12)NC(=O)c1ccc(Cl)cc1 (stereo not drawn),-8.71%
2,Cc1ccccc1-n1cnc2c(sc3nc(N4CCOCC4)c4c(c32)CCCC4)c1=O,-5.23%
3,COc1cccc(NC(=O)[C@@H]2CCCN2C(=O)[C@@H]2Cc3ccccc3CN2C(=O)OC(C)(C)C)c1,4.94%
4,COc1ccc(S(=O)(=O)Cc2ccc(C(=O)N3CCC4(CC3)OCCO4)o2)cc1,-10.1%
5,NC(=O)Cn1nc(C(F)(F)F)c2c1CCCC2,18.4%
6,Nc1c(Cl)c(Cl)nc(C(=O)N/N=C/c2cccnc2)c1Cl,-3.18%
7,Nn1c(Nc2ccccc2)nc2sc3c(c2c1=O)CCCC3,2.2%
8,C=CCc1ccc(OCC(O)CN2CCc3ccccc3C2)c(OC)c1.Cl (stereo not drawn),-68.8%
9,CCCN(CCC)C(=O)c1c(C)[nH]c(C(=O)OCC)c1C,9.79%
10,CCOC(=O)c1c(C)[nH]c(C(=O)CN2C(=O)NC(C)(c3ccc4ccccc4c3)C2=O)c1C (stereo not drawn),-0.934%
11,COCCn1c(CN(Cc2ccccc2)Cc2ccccc2)nc2c1c(=O)n(C)c(=O)n2C,-62.8%
12,O=C(O)c1ccccc1C(c1ccc(O)cc1)c1ccc(O)cc1,18.3%
13,CCn1c(COc2ccccc2)nnc1SCC(=O)Nc1ccc2c(c1)OCCO2,-6.9%
14,CC(=O)N1CCN(c2cc(N3CCCC3)c(F)cc2[N+](=O)[O-])CC1,5.05%
15,Cc1ccc(S(=O)(=O)Nc2ccccc2/C=N/c2nc3ccccc3n2C(C)C)cc1,-16.4%
16,CN(C)S(=O)(=O)c1ccc(C(=O)NCCN2C(=O)S/C(=C\c3cccnc3)C2=O)cc1,-27%
17,CCCS(=O)(=O)c1ccc(COC(=O)Cc2ccc([N+](=O)[O-])cc2)cc1,-48.5%
18,COc1cc(OC)c(OC)cc1/C=N/NC(=O)c1cnccn1,2.07%
19,CCOc1ccccc1OCC(=O)OCC(=O)c1c(C)[nH]c2ccccc12,3.42%
